To fix the notation:
B1: chr9:5785663:5785664:-_ENSG00000099219_ENST00000339450|hu_hu|FALSE|FALSE (ssRNA)
RNA: GGGAGUUCUACAGUCCGACGAUCGAGACAAGCAGCUUCAAGGACGUUUUCUCCGGCAAUGCAUACUUACUGUGCUCUUUCUAUUCAGACAGAUCCACAGACCACCUUUCAAGAGCAUUCCUCUCUCAUUUCCUCCAUCACCCACAACAGAGGAUUGAGCAUCA
B2: chr12:493273:493274:-_ENSG00000073614_ENST00000399788|hu_mus|hu_hu_hu_mus_False|28_88 (ssRNA)
RNA: GGGAGUUCUACAGUCCGACGAUCUUUUCUCUCCACCACAGGGAUCUUCAGAGUAGAUCCUUGAAGUUCCCAAAAUUUUGCCAGUUGAUCCAAGAAGUCCAAUCUUACUCUGGUCAUUGCCUCAAGUUCAUUCAGGCGCUGGACCAACAGAGGAUUGAGCAUCA
B3: chr10:1038518:1038519:+_ENSG00000107937_ENST00000545048|hu_hu|FALSE|FALSE (ssRNA)
RNA: GGGAGUUCUACAGUCCGACGAUCAAGUCUAUCAUGGUAAUUCUGUUGAGUAAAUUUGACUUUUCUCAUGUAAAAAUGUCUAAUGCGAUGUAUUUGGUAAUGUUUAUGAAUAACGGUUGGAGUCUUUCGUUGAGUCUUCGACAACAACAGAGGAUUGAGCAUCA
B4: 79254388_79254508_2281_CDS_ENSMUSG00000020716_ENSMUST00000071325|mouse|control|control (ssRNA)
RNA: GGGAGUUCUACAGUCCGACGAUCUCGAAUAUCUGCUUCUUCACAGAGGUGGCGGAAACAGGACAUAGCAACCAGAACAGCUUCAGUGUCAGGAUUCCACAGAAACAUGUAUAAGGCCACUUCUAGCUUGGUCUGGGCUUGUCGCAACAGAGGAUUGAGCAUCA
B5: 120361156_120364552_1330_CDS_ENSMUSG00000064302_ENSMUST00000049404|mouse|control|control (ssRNA)
RNA: GGGAGUUCUACAGUCCGACGAUCGGACUGUGGCAGUCCUUUCUUACUGAGGUCUGCCCUCACACGUUCACCUACAUGUCUAUAAAUCUCCACCAGACUGUUUAUUGCUGCGUCUCGAACCUGGCUGUUGGGAUCUCCCAGUAGCAACAGAGGAUUGAGCAUCA
B6: chr5:68498363:68498364:+_ENSG00000153044_ENST00000283006|hu_hu|motif|central (ssRNA)
RNA: GGGAGUUCUACAGUCCGACGAUCUUUUUCCUCUAAAUCCCAAGAUUCCUGCUGUGAUUUCAUUAUUAAUUUAUUUAGCUCGGAUAGGUGUUUCAUGUUAUCCAUGAGCACACUAGACUGUCUGCUAAUUUUCUCCAGGUUUUUCAACAGAGGAUUGAGCAUCA
B7: 110841348_110841468_127_CDS_ENSG00000196510_ENST00000455511|human|control|control (ssRNA)
RNA: GGGAGUUCUACAGUCCGACGAUCUGUAAGUAACAAGCUGCUGAGGAGCCGCACGUUGGAGUGCAGCCCCGCGGCCGCCAUGUCCCGCACGUGGUCUAUCACAUUCAUCCUGCUCUGCAAAGCCGCGGGCAGCGGCGGCAGCACCAACAGAGGAUUGAGCAUCA
B8: 77698130_77698250_3958_3pUTR_ENSMUSG00000025427_ENSMUST00000026494|mouse|control|control (ssRNA)
RNA: GGGAGUUCUACAGUCCGACGAUCGGGAGGGGGGUGAAGGAUCAACCCCUACCCUGCCCAGGUCCUAAUGUUAGCCUGGAGCGUUCAAAGAGCCUGAACAAAAAGGAAGCAAGCCGAACCCGCCCUGCCCUCUCACUCGGCCUGCAACAGAGGAUUGAGCAUCA
B9: 109512259_109512379_85_5pUTR_ENSMUSG00000020612_ENSMUST00000049527|mouse|control|control (ssRNA)
RNA: GGGAGUUCUACAGUCCGACGAUCGGGCGGCGGCACGAGCAGGGGCUAACGCAGGGCGAGGCGGCCGGGGUGACCGAGCGUCCAGCGGGCUCAGCUCGCAGCCUCACUACCACUCUGCGAUAGCGGCUCGGCGACGGCUCCACCCAACAGAGGAUUGAGCAUCA
B10: chr19:582928:582929:+_ENSG00000172270_ENST00000353555|hu_hu|FALSE|FALSE (ssRNA)
RNA: GGGAGUUCUACAGUCCGACGAUCGGGGCCGCAGGGCAGCAGCUCCCGGGCUCUCGUGAAACACUUCAGAAGGAAAAAAACCUAAGGAACAGAAUCCUGAAUGGAGAAAACCCAACUUUUUUAAAAAAGAAGGAAGUGUAUGAUCAACAGAGGAUUGAGCAUCA
B11: chr6:114281168:114281169:-_ENSG00000196591_ENST00000368632|hu_hu|hu_hu_hu_mus_True|88_98 (ssRNA)
RNA: GGGAGUUCUACAGUCCGACGAUCUUCCAUUUUUCGGUAUAAGCCAUAAUUUAACAGCAAGUUAUGAGUCAUCCGGAUUCUAUGAGGCUUCAUGGGAUGACCCUGGCCAUAAUAAUAAUUGCCAAUAUCACCAUCAUAGUAGUACAACAGAGGAUUGAGCAUCA
B12: chr5:37680062:37680063:+_ENSMUSG00000029121_ENSMUST00000031004|mus_hu|mus_mus_mus_hu_False|28_38 (ssRNA)
RNA: GGGAGUUCUACAGUCCGACGAUCUUUGGGUGUAGCUGGUACCUCGUACACAGGACCGUCAUACAUGCCCCUGGAAACCCCUUGCAAUCCAAAAACCUUGCUUCUGAUCCUGACACGCUGGUACAGGUGCUCCGGGAACGCCUUCAACAGAGGAUUGAGCAUCA
B13: chr1:95362928:95362929:-_ENSG00000117519_ENST00000538964|hu_mus|FALSE|FALSE (ssRNA)
RNA: GGGAGUUCUACAGUCCGACGAUCGACCACAUUUAGCAAAUCAACUUUUUAGUCUUCCACAUACAAGCCAGAUACGUACUAAAACUGUAAAAAAAGGAGAAAAAAUAGUUUCCUAUUGUUCGAAAAUACCAGUUUAUGUGUAAGCAACAGAGGAUUGAGCAUCA
B14: chr7:150069161:150069162:+_ENSG00000214022_ENST00000425389|hu_hu|FALSE|FALSE (ssRNA)
RNA: GGGAGUUCUACAGUCCGACGAUCCUCUUUGCACGGGUAGGGCUUCUCGCCGGUGUGGAUGCGCCGGUGCGAAGUCAGAUAGGGCUUAUUGGUAAAGCGCUUCCCGCACUCGGGGCACUGGUGGGGCCGCUCGCCCGUGUGCACCAACAGAGGAUUGAGCAUCA
B15: chr8:40069188:40069189:+_ENSMUSG00000039530_ENSMUST00000167992|mus_hu|FALSE|FALSE (ssRNA)
RNA: GGGAGUUCUACAGUCCGACGAUCCUUCUGUCCUCCCCCGAGCUGGAUGCAGAGCAGCAGCAGCAGGAGAAGGAAGGGAAAGCUCCCGGUGGGCAGGUACCGCAGCCGCCGCCCCGCUUGCCUACGGCGUGAAGGAGCGCCCCGCAACAGAGGAUUGAGCAUCA
B16: chr11:77336104:77336105:-_ENSG00000074201_ENST00000525064|hu_mus|hu_hu_hu_mus_False|1_8 (ssRNA)
RNA: GGGAGUUCUACAGUCCGACGAUCCUCACACAUUGCUGUGAACAUCGCCUCCAAUGCUGACUUAUCACUGGGCACAAAUCGAAAUUCAGAAAUGGGUUCAACAUCAUCAUUGUCUUCCUCAUCUUCAUCAUCAGCAACAGGUUCCAACAGAGGAUUGAGCAUCA
B17: 31337659_31337779_3093_3pUTR_ENSMUSG00000021962_ENSMUST00000022535|mouse|control|control (ssRNA)
RNA: GGGAGUUCUACAGUCCGACGAUCCCGGCGGGACCGCUGCGUCUGUCAGCAUUAUUCACAGCGAAUCCUUACGCUAGCUGGUUGAGCCAACUGGGUUCUUACCCAUCAUUAAAUAGUGCUCAGAAAAGUAAGCAGUGCAUUAAUCAACAGAGGAUUGAGCAUCA
B18: chr5:138699528:138699529:+_ENSG00000120727_ENST00000265192|hu_mus|FALSE|FALSE (ssRNA)
RNA: GGGAGUUCUACAGUCCGACGAUCAUCCUCUUCAUGAGAAUGACCGUUAAUAAUCACAUCGUCAUUGAUGAUGCUUGGGCUAGUACUGCUGCGACUUGGAUCUUUCAUGGUUGGUGCUCGUUGUCGUUUUUAACCCAGUGCACGCAACAGAGGAUUGAGCAUCA
B19: chr12:39763582:39763583:-_ENSG00000139116_ENST00000544797|hu_mus|hu_hu_hu_mus_False|28_48 (ssRNA)
RNA: GGGAGUUCUACAGUCCGACGAUCCUCUAGGAACUGGGCAUUCACUUUGAAUUCAGGAGGGGGCAGCCCGUUUUUAAUCGCUGAGGUUUUUUUUUCUUCAAUACUCUUAAAAAGGUGUCUAACAGCACGAGAGAUGAUGCCCUGCAACAGAGGAUUGAGCAUCA
B20: chr2:179883191:179883192:+_ENSMUSG00000039050_ENSMUST00000040668|mus_hu|FALSE|FALSE (ssRNA)
RNA: GGGAGUUCUACAGUCCGACGAUCGUAGAUGGAGCCAUGGAACAGGAAGUCAUGGUUGAGACCUUCCGAGUGGAACGCACUGAUGGGGGGGUGGUGACUGACCUGUUCCGAUAUAAAUCUGAAUCCUAAAUCUUCCCUGAUUAACAACAGAGGAUUGAGCAUCA
B21: chr1:63226128:63226129:+_ENSMUSG00000025967_ENSMUST00000135877|mus_hu|FALSE|FALSE (ssRNA)
RNA: GGGAGUUCUACAGUCCGACGAUCCUCAAAAGCAGUGAUCUGCUCCUCCAGCAUAUCUGUUCCAACUUUAUCAUCUUCAACUACACACUGUAUUUGAAGUUUCUUAAUUCCGUAUCCCACUGGAACUAGUUUAGAUGAGCCCCACAACAGAGGAUUGAGCAUCA
B22: chr4:40680873:40680874:+_ENSMUSG00000028410_ENSMUST00000030118|mus_hu|motif|central (ssRNA)
RNA: GGGAGUUCUACAGUCCGACGAUCCUGAUACCCAGAUUUAAGCAUGUGAACAUAUGAGACUUUUAAACAUACAAUUAAAGCGGUUCAUCAUAAUUUGCUAUACUACCAACAUAACUUUGGAGCGAAAGUCAAAUGGUUUAAAGUCAACAGAGGAUUGAGCAUCA

Some of the results follow.

The test concerns the target T1, UNK ZnF1-3 (human, UniProt Q9C0B0 31-174).
T1 sequence: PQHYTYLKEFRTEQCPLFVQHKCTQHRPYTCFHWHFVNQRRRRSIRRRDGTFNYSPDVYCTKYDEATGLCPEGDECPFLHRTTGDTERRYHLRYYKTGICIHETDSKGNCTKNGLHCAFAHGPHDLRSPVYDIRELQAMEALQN
The test is described as follows: nsRBNS (natural sequence RNA bind-n-seq); RBNS binding buffer (assumed for nsRBNS): 25 mM Tris pH 7.5, 150 mM KCl, 3 mM MgCl2, 0.01% Triton X-100, 500 ug/ml BSA, 20 U/ml SUPERase-In, 4 C; UNK is unkempt and MSI1 is Musashi-1; names of the RNAs are library labels; protein concentration not given here; high values mean tight binding.
Molecule B1 came in with a binding signal of 1.22 enrichment R. B2: the binding signal was found to be 1.08 enrichment R. For the molecule B3, the binding signal stood at 1.53 enrichment R. Consider B4, for which the binding signal stood at 1.44 enrichment R. Molecule B5 showed a binding signal of 0.609 enrichment R. Turning to B6, the binding signal amounted to 0.57 enrichment R. As for B7, the figure is 0.731 enrichment R. The molecule B8 returned a binding signal of 0.897 enrichment R.

Molecule B9 displayed a binding signal of 0.408 enrichment R. As for B10, the figure is 1.74 enrichment R. With B11 the figure was 0.735 enrichment R; with B12, 0.878 enrichment R; with B13, 1.09 enrichment R.

Regarding B14, the binding signal was 0.467 enrichment R. With B15 the figure was 0.686 enrichment R; with B16, 1.23 enrichment R.

Molecule B17 showed a binding signal of 0.321 enrichment R.

Molecule B18 had a binding signal of 0.63 enrichment R.

In the case of B19, the binding signal was found to be 1.84 enrichment R. As for B20, the figure is 0.545 enrichment R; as for B21, 0.599 enrichment R; as for B22, 0.929 enrichment R.

The values are drawn from PMC12136788.
